The values that follow come from PubChem BioAssay AID463173 (ICCB-Longwood Screening Facility, Harvard Medical School, 2010).

Out of some 52,000 compounds screened, about 4,300 (8.3%) were called active. Cut-off read from the data, not from the text of the source: active = survival mostly below about 52% (no sharp cut-off); inactive = mostly above about 56%. This is one part of the list.

For the assay, the system named is DeltatarO mutant. In words: growth inhibition of S. aureus wild type versus tarO mutant, primary screen, teichoic acid synthesis inhibitors, RN4220, OD600 (AID 463173). The settings on record: OD600, 18 h, stronger effect = lower value, screened at 18.75 µg/mL (by protocol).
For the compound `O=C(CN1C(=O)COc2ccc(S(=O)(=O)NC3CCCC3)cc21)NCc1ccc(Cl)cc1`, the survival was inactive: 69%. `CCOc1ccc(CNC(=O)CSc2nnc(C)c3c(C)n(-c4ccc(Cl)cc4)nc23)cc1`: the survival was inactive: 91%.

As for `CCN(CC)CCSc1c(C(C)C)cnc2c1c(=O)n(C)c(=O)n2C`, the survival was inactive: 74%. In the case of `CCN(CC)C(=O)c1ccc2c(c1)N(Cc1ccc(C(F)(F)F)cc1)C(=O)c1ccccc1S2`, the survival is inactive: 73%. Turning to `CCOCCCn1c(=N)c(C(=O)NCc2cccnc2)cc2c(=O)n3ccccc3nc21`, the survival is inactive: 83%. In the case of `Cc1nn2c(=O)cc(COC(=O)c3cccc(NC(=O)COc4ccccc4C)c3)nc2s1`, the survival was inactive: 68%. To `Cn1c(=O)c(C(=O)O)nn(-c2ccccc2)c1=O` belongs inactive: 63%; to `Cc1ccc(NC(=O)Nc2nnc(N3CCCC3)s2)cc1C`, inactive: 81%. Then `COC(=O)c1ccc(C(=O)OC)c(NC(=O)CN(c2ccccc2)S(=O)(=O)N(C)C)c1`, with inactive: 70%; and `COc1cccc(CN(Cc2ccco2)C(c2nnnn2Cc2ccc(F)cc2)C(C)C)c1` (stereo not given), with inactive: 82%; and `CCOc1ccccc1CNC(=O)C1CCCN(c2nnc(C)c3c(C)n(-c4ccccc4)nc23)C1` (stereo not given), with inactive: 76%.

Consider `Cc1c(C(=O)N2CCC(C)CC2)c(S(=O)(=O)N(Cc2ccccc2)C(C)(C)C)c(C)n1C`, for which the survival is inactive: 95%. To `CN(C)NC1CCS(=O)(=O)C1` (stereo not given) belongs inactive: 92%. To `CN1CCN(C(=O)C(=O)Nc2c3c(nn2-c2ccc(Cl)cc2)CSC3)CC1` belongs inactive: 72%; to `CCc1nn(CCCC(=O)NCc2ccc(OC(C)C)cc2)c(=O)c2cc3occc3n12`, inactive: 77%; to `COc1ccc(N2CCN(C(=O)c3cccn3-c3nnc(N4CCCC4)s3)CC2)cc1`, inactive: 101%. `O=C(CSc1n[nH]c(-c2ccccc2Cl)n1)NCCc1ccccc1`: the survival was inactive: 87%. On to `CCOc1cc(CNS(=O)(=O)c2ccc3c(c2)C(C)(C)C(=O)N3)cc(OCC)c1OCC`, for which the survival was inactive: 98%. Then `CC(NC(=O)Cn1ccc2cc(S(=O)(=O)N3CCCCCC3)ccc21)c1ccccc1` (stereo not given), with inactive: 92%; and `COc1ccc(C)cc1NC(=O)Nc1nnc(N2CCCCC2)s1`, with inactive: 68%.

As for `CCOC(=O)C1CCCN(c2nc3c(S(=O)(=O)c4ccc(CC)cc4)nnn3c3ccc(Cl)cc23)C1` (stereo not given), the survival is inactive: 79%.

Turning to `COc1ccc(Nc2ncnc3sc4c(c23)CCCC4)cc1`, the survival was inactive: 69%. With `O=C(NCc1ccccc1Cl)c1ccc(CS(=O)(=O)c2ccc(Br)cc2)o1`, the survival was inactive: 127%. In the case of `CCC(=O)Nc1sc2c(c1C#N)CC(C)(C)NC2(C)C`, the survival is inactive: 81%.

In the case of `Cc1c(CNC2CCCCC2)c(C(=O)O)c(C)n1Cc1ccc(Cl)cc1`, the survival is inactive: 84%. Turning to `O=C(CSc1ncccn1)NN=C1CCCCCC1`, the survival is inactive: 96%. For the compound `Cc1ccc(Cn2c3ccccc3c3cnn(CC(=O)Nc4cc(Cl)ccc4C)c(=O)c32)cc1`, the survival is inactive: 84%. `Clc1ccc(-n2ncc3c(NC4CCCC4)ncnc32)cc1`: the survival is inactive: 99%. To `CCN(CC)S(=O)(=O)c1ccc2c(c1)N(CC(=O)N1CCN(c3cccc(C)c3C)CC1)C(=O)CO2` belongs inactive: 120%; to `Cc1cc(C)c(NC(=O)Cn2c(=O)n(CCC(=O)N3CCc4ccccc4C3)c(=O)c3ccccc32)c(C)c1`, inactive: 70%.
